This note sets out measurements from the RNAGym collection of RNA variant scans (doi:10.1093/nar/gkz1192).

B1: CPEB3 Ribozyme (parent)
chain: UAACAGGGGGCCACAGCAGAAGCGUUCACGUCGCAGCCCCUGUCAGAUUCUGGUGAAUCUGCGAAUUCUGCUGUAUAUCUC

Read counts are not given, so values of variants with three or more changes are uncertain.

The variants in this data set derive from B1. The experiment in a line: self-cleavage, relative activity (ratio to wild type); higher = more cleavage; in vitro, sequencing. The method, boiled down:
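CPEB3 self-cleaving ribozyme mutant libraries were made by rounds of error-prone PCR, barcoded, and transcribed in vitro with T7 RNA polymerase for 5 hours at 37°C. Cleavage occurred during transcription and a 15 min DNase I step before EDTA stop. RNAs were reverse transcribed with template switching and Illumina-sequenced, with DNA sequencing mapping barcodes to variants. Relative activity is the variant's cleaved/total read fraction divided by wild type's (minimum 5 reads), averaged across three batches.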
For A15G A18G C27U G36C C40U, the self-cleavage was 0.06.
Turning to C14U A65G U67C, the self-cleavage was determined as 0.08.
The result for A15G U41A A64G A75U reads 0.
The result for A15G G19U U67C U69A reads 0.07.
Take A15G U25C C71U: the self-cleavage amounted to 0.2.
As for A15G A21C C62U, the figure is 0.12.
With C14U A20G U48C U58A, the self-cleavage is 0.07.
The result for A15G U31C U48A reads 0.06.
The result for A15G U25C U41A A57G G63A U72A reads 0.07; that for A15C C23G U76A, 0.21; that for A15G A21U C27A G42A U80A, 0.18.
As for A15G A21G A64U, the figure is 0.33; as for A15G A20G U26A C38U U51C, 0.1; as for A15G C29U U58C A64G, 0.09.
Regarding A15G A18C U26C G33U A45G U49C U74A, the self-cleavage was determined as 0.24.
In the case of A15G A47G U48A G52U C62U U67C U80C, the self-cleavage was 0.04.
As for A15C A65G U67C A77U, the figure is 0.06; as for A15G A35U U72C, 0.97.
As for A15G A47G U48C, the figure is 0.23.
As for A15C A21G U41A, the figure is 0.07; as for A15G G24A G61A U78C, 0.12.
Turning to A15G A28U A45G U60A, the self-cleavage came out at 0.24.
The result for C14U A18G A64U reads 0.24; that for A15G A35C U54A U58C C68A A77U, 0.06.
As for A15G U41C A56G U72C U76C C79U, the figure is 1.3; as for A15G A28U U72C, 1.08.
As for A15C C37U A47G U48C, the figure is 0.08; as for C14U U31C U49C U60C U66C, 0.09.
Turning to A15G A28G U41C U54A, the self-cleavage was 0.55.
Regarding C14U A21G C50A U67A, the self-cleavage is 0.19.
The result for A15G A20C A45U A57G A65G reads 0.1; that for A15G C39U U49C, 0.2; that for A15G U31A G33A G52A C62U G73A, 0.06.
The result for A15G U26C U78C C81U reads 0.38.
The result for A15G A18U A21G reads 0.49; that for A15G A18G A21G A45G U48C U54G, 0.39; that for A15G A20G U43C U66C U67C, 0.
In the case of A15G A21G A65G, the self-cleavage came out at 0.31.
A15G A28U U48C A64G U69C: the self-cleavage was 0.13.
As for A15G A18C A64U, the figure is 0.09; as for C14U C39A U54C U80C, 0.35; as for A15G U25C U51G, 0.34.
Take C14U A18G G19U C23U U25A A45U: the self-cleavage came to 0.16.
As for A15G A21G A28U U78C, the figure is 0.35.
The result for A15C U26G A45U U51C U60C U78C reads 0.03; that for A15G A21G A47C U54A C68U U76C, 0.26; that for A15G A56U U78C, 0.36.
The result for A15G U31C U41A A57G U66C reads 0.06; that for C14U U25A G63A U67C U69A, 0.06.
As for A15G A35G A45G U58A U69C, the self-cleavage was 0.08.
As for A15G A18G U31C U41C A57U, the figure is 0.25; as for C14U A15G U69C U72A, 0.12.
Consider A15G U25C U41C, for which the self-cleavage is 0.42.
As to A15G U41A U78A, the self-cleavage stood at 0.22.
On to A15G A45G C62U U66C U76C, for which the self-cleavage was determined as 0.14.
As for A15G A56C U60A, the figure is 0.
In the case of C14U G63A U78C, the self-cleavage was 1.17.
For A15G U26A A47G, the self-cleavage came to 0.85.
Take C14U A45U U78C: the self-cleavage came out at 0.87.
In the case of A15G A18U C38U U58C, the self-cleavage was found to be 0.16.
As for A15G A20G U58C G63C A64G, the figure is 0.19.
The result for A15G A18G G22C reads 0.47; that for A15C A35G U43C U69C, 0.16.
As to A15G U41C A45G A57G U66A U67C, the self-cleavage worked out at 0.16.
Take A15C C38G U80A: the self-cleavage is 0.1.
As for A15G C29U G30U U58C U76C, the figure is 0.15.
The result for A15G C23U U69G U72C reads 0.07; that for A15G C44G U80C, 0.21.
As for A15G U41C U43C, the figure is 0.37; as for A15G A21G U54A U66C, 1.17; as for A15G C38A U43C U58C U69C, 0.12.
Turning to A15G A28G U43C A47U U48C, the self-cleavage was 0.07.
With A15G U26C U66A, the self-cleavage amounted to 0.32.
As for A15G U31A U41A C50A, the figure is 0.14.
For the variant A15G A18C U31A U60C A65C, the self-cleavage worked out at 0.16.
For the variant A15G U25C U41C A65G, the self-cleavage turned out to be 0.29.
The result for C14U A35G U49C A65C U67C U78C U80C reads 0.27; that for A15G U41C U72C U78C, 1.14; that for A15G A64G U78C, 0.66.
The result for A15G A64G U78G reads 0.39.
On to A15C A35G U43C A57C, for which the self-cleavage turned out to be 0.2.
As for A15G A18G U41A U51A U69C, the self-cleavage was 0.07.
As for C14U G33C U54C A57G U72A, the self-cleavage was determined as 0.1.
As for C14U A35G U58A, the figure is 1.2.
The result for A15G C32U A45G U54C U67C reads 0.07; that for A15G A18G A20G U72C, 0.36; that for A15G A35G U67C, 0.16.
As for A15G A35G U67A, the self-cleavage was found to be 0.39.
Consider A15G U43A C81U, for which the self-cleavage was 1.1.
The result for A15G U31A A56G U66A reads 0.15.
In the case of A15G A20G U26A G42A U69A U72C A77U, the self-cleavage was 0.07.
The result for A15G C23U U25C reads 0.28; that for A15G A28C U41C A47G, 0.41; that for C14U C32G C62U U69G U74C, 0.1.
The result for C14U U41C C44U A77U reads 0.38; that for C14U C39A U49C, 0.04; that for A15G G52U A57C U60C, 0.23.
The result for A15G G30A U43A U72C U80C reads 0.26; that for A15C U41A U43C, 0.21; that for A15G U31C U49C, 0.32.
Regarding A15C U49A U51C U67C, the self-cleavage was 0.23.
A15G A35G C39A: the self-cleavage amounted to 0.42.
As for A15G C29U U31C A57G A64U, the figure is 0.08; as for A15G U26C U69C G70U, 0.14; as for A15G U31C A64G A65G, 0.31.
In the case of A15G A18G U26C U60C, the self-cleavage is 0.36.
As for A15G A20G A21G A65G U66C U69C U76A, the figure is 0.17; as for C14U C40U A45U U67A G70U U72G, 0.04; as for A15G A18U U58C, 0.11.
For A15G A18U U26C U51G, the self-cleavage came out at 0.08.
As for A15G A21G A28G U31A U60C U69A U80C, the figure is 0.05; as for A15G C39U U74C, 1.21.
On to A15C U26A C37U U51C C59G A64G U72C, for which the self-cleavage came to 0.09.
The result for A15G G55A U69C U76G reads 0.48; that for A15G C40U U58A, 0.16.
On to A15C A45U A64G U67G, for which the self-cleavage stood at 0.12.
As for A15C U58C U78A, the figure is 0.63.
The result for A15C U31C U43A U69C U78A reads 0.23; that for C14U C32U C39A G55U C79A, 0.22; that for A15G U25C A28G U54C G61A U72C C79U, 0.03.
For the variant A15G U25C A65C U66C U78C, the self-cleavage was 0.05.
For A15G G22U A45U A65U U78C, the self-cleavage amounted to 0.09.
Regarding A15G A64G U72C, the self-cleavage is 1.2.
In the case of C14U U25A U43C, the self-cleavage was 0.43.
On to A15G U25C U31A, for which the self-cleavage is 0.11.
As for A15G C23U U60C, the figure is 0.03; as for A15G U31C C50A, 0.11; as for A15G G42A C50A A56G A77G, 0.07.
As for A15G A35G U51C U60G U67A, the figure is 0.13; as for A15G A28U G33U U49A, 0.23; as for A15C U25G U41A, 0.23.
As for A15G U41C U54C G61A, the figure is 0.31.
With A15G U31A C62U, the self-cleavage was 0.06.
With A15G A20C U31A, the self-cleavage is 0.37.
The result for A15G U31C C32U U54A U67C reads 0.09; that for A15G A56G U80A, 0.83; that for A15G C17U U31C U41C U43C G46U U51A, 0.03.
The result for A15G A35U A64U U72A reads 0.11.
As for A15G A35G U54C A57U, the figure is 0.29; as for A15C A18G G46A A56G U66A, 0.2.
Regarding A15G C17A U72C, the self-cleavage stood at 0.88.
Consider A15G A21G C27A G42A U51A, for which the self-cleavage was found to be 0.02.
As for A15G U41C A64G U72C, the figure is 0.92; as for A15G A20G G22C U51A U54C, 0.2; as for A15G A21U U43C U54C U72A, 0.3.
As for A15G A18U A45G U49C U74A, the figure is 0.05; as for A15C G33A U72A, 0.23; as for A15G C68G U72A, 0.17.
As for A15G A20U U25C U60C, the figure is 0.35; as for A15G A35U C38G A45U A47G, 0.07.
For A15G U25A U51C A65G, the self-cleavage is 0.1.
For A15G U43A U66C, the self-cleavage was found to be 0.25.
As for A15G A56G A64U U72A, the figure is 0.23; as for A15G A20G U43C U78A, 0.06; as for A15G U26A U58C, 0.35.
The result for A15G A18G C40U U43C A65U reads 0.04; that for A15G U25C G55A A56G, 0.11.
Regarding C14U U26A A77G, the self-cleavage turned out to be 0.83.
As for C14U A15U A20G G30A G33C, the figure is 0.04; as for A15G C37U A56G A64U U78A, 0.11; as for A15C U74C A75G, 0.79.
Consider C14U G22C C37U U43C G61A U78C, for which the self-cleavage is 0.04.
The result for A15G A21G G22C U80C reads 0.08.
As for A15G A28U A64G A75G, the figure is 0.16.
As for A15C U25G A28G U67C U78A C79G, the self-cleavage was found to be 0.01.
The result for A15G A21G C27A A64G reads 0.12; that for A15G U25C A35G A47G U66C U69A, 0.12.
